# According to PubChem BioAssay (NCATS):
# Inconclusive results, whose numbers are uncertain, are shown with a selection of clear calls. For part of these data: No potency is given beside an inconclusive call; the fits are too rough. Activity calls are given as the source filed them. The call rests on the fitted dose curve; in most records, active means well fitted curve in the direction sought with a large enough effect; inconclusive means small, poorly fitted or top-dose-only effect, or another doubt; inactive means no such curve, though single readings can be large; an effect the other way counts as inactive or inconclusive.
# Experiments:
# [1] = target: Glutathione peroxidase 1 (Homo sapiens) (UniProt P07203); test: Primary qHTS Assay for Inhibitors of Recombinant Selenoprotein Glutathione Peroxidase 1 (GPX1) (AID 1845191); settings: activity, negative = inhibition: at 48.8 µM (top of the series); further: nearly all actives have a fitted effect of over 65% in size; further: potency means the concentration at half of the fitted maximal effect
# UniProt P07203, sequence (P07203 whole entry, looked up): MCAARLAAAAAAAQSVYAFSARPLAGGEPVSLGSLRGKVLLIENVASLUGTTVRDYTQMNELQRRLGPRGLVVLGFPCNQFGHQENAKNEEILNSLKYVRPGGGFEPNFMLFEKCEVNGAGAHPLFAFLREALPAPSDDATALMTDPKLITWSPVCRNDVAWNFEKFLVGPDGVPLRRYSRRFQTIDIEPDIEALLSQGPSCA
# How it was run: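 10 nM GPX1 + cpd, 30 min RT; start w/ 1 mM GSH, 0.5 mM cumene hydroperoxide, 0.5 mM NADPH, 100 nM GR, 0.01% BSA; buffer 50 mM Tris-HCl pH 7.5, 2 mM EDTA, 150 mM NaCl; Fl 340/450, 0 & 15 min.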
# [2] = target: Phospholipid hydroperoxide glutathione peroxidase GPX4 (Homo sapiens) (UniProt P36969); test: Primary qHTS Assay for Inhibitors of Recombinant Selenoprotein Glutathione Peroxidase 4 (GPX4) (AID 1845192); further: nearly all actives have a fitted effect of over 65% in size; further: potency means the concentration at half of the fitted maximal effect
# UniProt P36969, sequence (P36969 whole entry, looked up): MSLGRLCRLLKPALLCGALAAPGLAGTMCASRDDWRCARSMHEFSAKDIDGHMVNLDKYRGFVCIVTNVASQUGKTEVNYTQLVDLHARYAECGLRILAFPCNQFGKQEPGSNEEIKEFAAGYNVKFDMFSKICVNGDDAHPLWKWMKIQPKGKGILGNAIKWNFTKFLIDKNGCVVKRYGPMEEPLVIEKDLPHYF
# How it was run: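 NADPH consumption, followed by fluorescence at 340/450 nm between 0 and 15 min, reports GPX4 activity via coupled glutathione reductase (100 nM). Enzyme 200 nM was pre-exposed to compound 30 min; 0.5 mM cumene hydroperoxide and 1 mM GSH served as substrates.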
# [3] = target: Luciferin 4-monooxygenase (Photinus pyralis) (UniProt P08659); test: Primary firefly luciferase (FLuc) qHTS assay for identification of artifact compounds. (AID 1845220); further: nearly all actives have a fitted effect of over 60% in size; further: potency means the concentration at half of the fitted maximal effect
# How it was run: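 FLuc 10 nM; luciferin 10 uM; ATP 10 uM; Tris-acetate pH 7.6, Mg-acetate 10 mM; 15 min RT preincubation; 5 min reaction; luminescence.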
# [4] = Quantitative High-Throughput drug screen in 47 multiple myeloma cell lines against the NCATS MIPE library collection: Delta47_JCRB cell viability assay (AID 1918925; further: nearly all actives have a fitted effect of over 45% in size; further: potency means the concentration at half of the fitted maximal effect); settings: Delta47 myeloma viability, CellTiter-Glo ATP, 48 h; viability (% of DMSO): at 45.8 µM (top of the series) unless noted
# How it was run: (§1)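 Primary qHTS used for cherry-picking: cells at 500/well, library compounds for 48 h (37C, 5% CO2), luminescent ATP assay.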
# [5] = Quantitative High-Throughput drug screen in 47 multiple myeloma cell lines against the NCATS MIPE library collection: EJM_DSMZ cell viability assay (AID 1918926; further: nearly all actives have a fitted effect of over 30% in size; further: potency means the concentration at half of the fitted maximal effect); settings: EJM myeloma cell viability, CellTiter-Glo ATP, 48 h; series mostly up to 45.8 µM
# How it was run: as §1
# [6] = Quantitative High-Throughput drug screen in 47 multiple myeloma cell lines against the NCATS MIPE library collection: ARP1_JJKsccF8 cell viability assay (AID 1918928; further: nearly all actives have a fitted effect of over 40% in size; further: potency means the concentration at half of the fitted maximal effect); settings: ARP1 myeloma cells viability, CellTiter-Glo ATP, 48 h; viability: at 45.8 µM (top of the series)
# How it was run: (§2)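 Myeloma cells, 500 per well, were exposed to MIPE 4.0 drugs by pin transfer for 48 h at 37 °C, 5% CO2. Viability was read as ATP luminescence with CellTiter-Glo, normalised to DMSO-only (100%) and medium-only (0%) wells.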
# [7] = Quantitative High-Throughput drug screen in 47 multiple myeloma cell lines against the NCATS MIPE library collection: Karpas620_DSMZ cell viability assay (AID 1918959); further: nearly all actives have a fitted effect of over 30% in size; further: potency means the concentration at half of the fitted maximal effect
# How it was run: (§3)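 Luminescent ATP measurement with CellTiter-Glo gives viability, scaled between DMSO-only wells (100%) and media-only wells (0%). Cells, 500 per well, faced library compounds for 48 hours at 37C.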
# [8] = Quantitative High-Throughput drug screen in 47 multiple myeloma cell lines against the NCATS MIPE library collection: KMM1_JCRB cell viability assay (AID 1918960); settings: KMM1 myeloma viability, CellTiter-Glo ATP luminescence, 48 h; viability (% of DMSO): at 45.8 µM (top of the series); further: potency means the concentration at half of the fitted maximal effect; nearly all actives have a fitted effect of over 30% in size
# How it was run: as §2
# [9] = Quantitative High-Throughput drug screen in 47 multiple myeloma cell lines against the NCATS MIPE library collection: Karpas417_ECACC cell viability assay (AID 1918961); settings: Karpas417 myeloma viability, CellTiter-Glo ATP luminescence, 48 h; viability (% of DMSO): at 45.8 µM (top of the series) unless noted; further: potency means the concentration at half of the fitted maximal effect
# How it was run: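 Steps: seed 500 cells per well; pin-transfer MIPE 4.0 library; incubate 48 h at 37C, 5% CO2, humidified; add CellTiter-Glo, 5 min room temperature; read luminescence.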
# [10] = Primary fluorescence-based thiol-reactive (MSTI) qHTS assay for identification of artifact compounds. (AID 1845221); further: potency means the concentration at half of the fitted maximal effect;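 further: thiol-reactive compounds lower the probe fluorescence signal; nearly all actives have a fitted effect of over 65% in size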
# How it was run: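 MSTI probe at 4 uM final in 2% DMSO/PBS pH 7.4; compounds, 1 h at room temperature in dark. Fluorescence Ex/Em 525/598 nm, normalised to Acetyl-MSTI and MSTI, fitted to 4-parameter Hill.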
# [11] = Quantitative High-Throughput drug screen in 47 multiple myeloma cell lines against the NCATS MIPE library collection: AMO1_DSMZ cell viability assay (AID 1918927; further: nearly all actives have a fitted effect of over 30% in size; further: potency means the concentration at half of the fitted maximal effect)
# How it was run: as §1
# [12] = Quantitative High-Throughput drug screen in 47 multiple myeloma cell lines against the NCATS MIPE library collection: ARD_JJKsccE7 cell viability assay (AID 1918929; further: potency means the concentration at half of the fitted maximal effect)
# How it was run: as §1
# [13] = Quantitative High-Throughput drug screen in 47 multiple myeloma cell lines against the NCATS MIPE library collection: KHM11_PLB cell viability assay (AID 1918962); settings: KHM11 myeloma cell viability, CellTiter-Glo ATP luminescence, 48 h; series mostly up to 45.8 µM; further: nearly all actives have a fitted effect of over 35% in size; further: potency means the concentration at half of the fitted maximal effect
# How it was run: as §3
# [14] = Quantitative High-Throughput drug screen in 47 multiple myeloma cell lines against the NCATS MIPE library collection: FR4_PLB cell viability assay (AID 1918924; further: nearly all actives have a fitted effect of over 35% in size; further: potency means the concentration at half of the fitted maximal effect); settings: FR4_PLB myeloma cells viability, CellTiter-Glo ATP, 48 h; series mostly up to 45.8 µM
# How it was run: as §3
# [15] = Primary redox qHTS assay for identification of artifact compounds. (AID 1845223)
# How it was run: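 Amplex Red (25 uM) and HRP (250 mU/mL) in HBSS, with compounds for 15 min, then 250 uM DTT for 30 min, room temperature, dark. Fluorescence 525/598 nm read; normalized to DMSO and 10 uM DA3003; Hill fit.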
# Tags describe the fitted curve by direction and shape.
SMILES,Potency [1],Potency [2],Potency [3],Potency [4],Potency [5],Potency [6],Potency [7],Potency [8],Potency [9],Potency [10],Potency [11],Potency [12],Potency [13],Potency [14],Potency [15]
NC(=O)c1ccc2nc(-c3ccc(Oc4ccc(Cl)cc4)cc3)[nH]c2c1,"inconclusive [inhibitor, partial curve, poor fit]","inconclusive [inhibitor, partial curve]",active: 3.38 µM,active: 0.0264 µM,inactive,"inconclusive [cytotoxic, full curve]","inconclusive [cytotoxic, partial curve]",active: 0.469 µM,active: 0.187 µM,,,,,,
COc1ccc(Cc2ccc(NC(N)=O)cc2)cc1-c1cccc(Cl)c1,inactive,,inactive,inconclusive,inactive,inactive,"inconclusive [cytotoxic, single point]","inconclusive [cytotoxic, single point]","inconclusive [cytotoxic, partial curve, poor fit]",inactive,"inconclusive [cytotoxic, single point]","inconclusive [cytotoxic, partial curve, poor fit]","inconclusive [rising, partial curve]",,
CC(C)n1nc(-c2ccc3oc(N)nc3c2)c2c(N)ncnc21,"inconclusive [inhibitor, single point]",,,,"inconclusive [cytotoxic, partial curve]",,,"inconclusive [cytotoxic, partial curve, poor fit]","inconclusive [cytotoxic, full curve, poor fit]",,"inconclusive [cytotoxic, full curve, poor fit]","inconclusive [cytotoxic, full curve, poor fit]","inconclusive [cytotoxic, full curve]","inconclusive [cytotoxic, full curve]",
c1ccc2c(Oc3nc(Nc4ccc(N5CCOCC5)cc4)c4ncn(C5CCCCC5)c4n3)cccc2c1,,"inconclusive [inhibitor, full curve]",,"inconclusive [cytotoxic, partial curve]","inconclusive [cytotoxic, single point]","inconclusive [cytotoxic, partial curve, poor fit]",,"inconclusive [cytotoxic, full curve, poor fit]","inconclusive [cytotoxic, full curve, poor fit]","inconclusive [inhibitor, full curve]",,"inconclusive [cytotoxic, partial curve, poor fit]","inconclusive [rising, full curve, poor fit]",,inactive
CCC1=C(C)CN(C(=O)NCCc2ccc(S(=O)(=O)NC(=O)NC3CCC(C)CC3)cc2)C1=O (stereo not drawn),,"inconclusive [inhibitor, partial curve, poor fit] and inactive",,inactive,,,inactive,,,,inactive,,inactive,inactive,inactive
CCCC1OC2C[C@@H]3[C@H]4CCC5=CC(=O)C=C[C@]5(C)[C@H]4C(O)C[C@]3(C)[C@]2(C(=O)CO)O1 (stereo partly drawn),,inactive,,"inconclusive [cytotoxic, single point]",,,,,"inconclusive [rising, single point]",,,,"inconclusive [cytotoxic, partial curve, poor fit]",,
Cc1ccc(C2=Nc3ccc(Cl)cc3OC2)cc1,"inconclusive [inhibitor, single point]",,,,,"inconclusive [cytotoxic, full curve, poor fit]",,active: 3.32 µM,"inconclusive [cytotoxic, full curve, poor fit]",,active: 1.18 µM,"inconclusive [cytotoxic, partial curve, poor fit]","inconclusive [rising, full curve, poor fit]",,
O=C(O)c1cn(-c2ccc(F)cc2)c2cc(N3CCNCC3)c(F)cc2c1=O,,"inconclusive [inhibitor, single point]",,,inactive,"inconclusive [rising, full curve, poor fit]",inconclusive,,"inconclusive [cytotoxic, partial curve, poor fit]",,,,"inconclusive [cytotoxic, partial curve]",,
